The results in this text go back to the supplement of paper PMC10037445.

Molecules are shown by their SMILES. Over roughly 2,900 compounds, “NF-kB SEAP reporter activity, fold change vs agonist alone” has its median near 0.99; the highest 2% begin near 2.6. This is one part of the list.

The subject of assay [1] is RAW-Dual. The assay can be described thus: NF-kB SEAP reporter activity, fold change vs agonist alone; higher = enhanced NF-kB activity. Conditions: library stock concentration (final ~1000-fold dilution): 10 mM. The method in brief:
(§1)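 After 50 nL of library stock was delivered by pin tool to RAW-Dual macrophages (50,000 cells/well, DMEM, 384-well plates), a PRR agonist was added 1 h later and the plates were kept at 37 °C, 5% CO2. Twenty hours later, IRF was read from supernatant by QuantiLuc luminescence and NF-κB by QuantiBlue absorbance at 620 nm. Reporter activity is stated as fold change over agonist-alone wells. Wells with IncuCyte confluency under 70% of agonist controls in both mask sets were counted as cytotoxic.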

Assay [2] deals with RAW-Dual. The assay is described as follows: NF-kB SEAP reporter activity, fold change vs agonist alone; cytotoxicity flag (confluency mask): cytotoxic (confluency <70% of control); higher = enhanced NF-kB activity. An outline of the steps: as §1
For assay [3], the system named is RAW-Dual. The assay is described as follows: NF-kB SEAP reporter activity, fold change vs agonist alone; cytotoxicity flag (confluency mask): not cytotoxic; higher = enhanced NF-kB activity. An outline of the steps:
as §1

Setting [4] is: cytotoxicity flag (confluency mask): cytotoxic (confluency <70% of control), agonist: Imiquimod (TLR7) […].
[5] abbreviates: cytotoxicity flag (confluency mask): cytotoxic (confluency <70% of control), agonist: MPLA (TLR4) […].
The mark [6] stands for this setting: agonist: ODN 1826 (TLR9) 0.5 ug/mL.
The mark [7] stands for this setting: agonist: Pam2CSK4 (TLR2/6) 0.1 ug/mL.
The mark [8] stands for this setting: agonist: Pam3CSK4 (TLR2/1) 0.1 ug/mL.
[9] abbreviates: cytotoxicity flag (confluency mask): not cytotoxic, agonist: Imiquimod (TLR7) […].
Setting [10] is: cytotoxicity flag (confluency mask): not cytotoxic, agonist: MPLA (TLR4) […].

On to `COc1ncc(-c2cc(-c3ncc(CN4CC(C)OC(C)C4)o3)c3cn[nH]c3c2)cc1NS(C)(=O)=O` (configuration not stated), for which the “NF-kB SEAP reporter activity” value in the assay with RAW-Dual [1] (setting [4]) is 0.604; in the assay with RAW-Dual [1] (setting [5]) it was 2.18.
Consider `COc1ncc(-c2cc(-c3ncc(CN4CC(C)OC(C)C4)o3)c3cn[nH]c3c2)cc1NS(C)(=O)=O` (configuration not stated) (library stock concentration (final ~1000-fold dilution): 10 mM), for which the “NF-kB SEAP reporter activity” value in the assay on RAW-Dual [2] (agonist: LPS (TLR4) 0.1 ug/mL) was determined as 5.18; with RAW-Dual [2] (setting [6]), 0.639; in the assay on RAW-Dual [2] (setting [7]) it was 1.01; with RAW-Dual [2] (setting [8]) it was 1.39.
Turning to `Cc1cc(-c2ccccc2)nnc1NCCN1CCOCC1.Cl.Cl` (library stock concentration (final ~1000-fold dilution): 10 mM), the “NF-kB SEAP reporter activity” value with RAW-Dual [3] (agonist: LPS (TLR4) 0.1 ug/mL) was found to be 1.35; in the assay on RAW-Dual [3] (setting [6]) it was 1.33; with RAW-Dual [3] (setting [7]), 1.02; with RAW-Dual [3] (setting [8]) it was 1.19.
`Cc1cc(-c2ccccc2)nnc1NCCN1CCOCC1.Cl.Cl`: the “NF-kB SEAP reporter activity” value came out at 1.35 in the assay on RAW-Dual [1] (setting [9]) and 1.27 in the assay on RAW-Dual [1] (setting [10]).
The corresponding values for `CC(C)=CCC[C@@H](C)CCO` are 0.998 and 1.12.
As for `CC(C)=CCC[C@@H](C)CCO` (library stock concentration (final ~1000-fold dilution): 10 mM), the “NF-kB SEAP reporter activity” value came to 1.1 in the assay with RAW-Dual [3] (agonist: LPS (TLR4) 0.1 ug/mL), 1.14 with RAW-Dual [3] (setting [6]), 1.11 in the assay with RAW-Dual [3] (setting [7]) and 1.1 with RAW-Dual [3] (setting [8]).
Take `COc1ccc(OC)c(C2C(C#N)=C(N)Oc3[nH]nc(-c4ccc5ccccc5c4)c32)c1` (configuration not stated) (library stock concentration (final ~1000-fold dilution): 10 mM): the “NF-kB SEAP reporter activity” value in the assay on RAW-Dual [3] (agonist: LPS (TLR4) 0.1 ug/mL) worked out at 1.12; in the assay with RAW-Dual [3] (setting [6]), 0.869; with RAW-Dual [3] (setting [7]), 0.75; in the assay on RAW-Dual [3] (setting [8]), 0.707.
For `COc1ccc(OC)c(C2C(C#N)=C(N)Oc3[nH]nc(-c4ccc5ccccc5c4)c32)c1` (configuration not stated), the “NF-kB SEAP reporter activity” value was 0.966 in the assay on RAW-Dual [1] (setting [9]) and 1.39 in the assay with RAW-Dual [1] (setting [10]).
For `CC12CCC3c4ccc(O)cc4CCC3C1CCC2OC(=O)CCC1CCCC1` (configuration not stated), the “NF-kB SEAP reporter activity” value with RAW-Dual [1] (setting [4]) turned out to be 1.32; with RAW-Dual [1] (setting [5]) it was 1.06.
Consider `CC12CCC3c4ccc(O)cc4CCC3C1CCC2OC(=O)CCC1CCCC1` (configuration not stated) (library stock concentration (final ~1000-fold dilution): 10 mM), for which the “NF-kB SEAP reporter activity” value was 0.778 in the assay with RAW-Dual [2] (agonist: LPS (TLR4) 0.1 ug/mL), 0.986 with RAW-Dual [2] (setting [6]), 1.01 in the assay with RAW-Dual [2] (setting [7]) and 0.995 with RAW-Dual [2] (setting [8]).
With `O=C1C[C@@H](c2ccc(O)cc2)Oc2cc(O)cc(O)c21`, the “NF-kB SEAP reporter activity” value in the assay on RAW-Dual [1] (setting [9]) was found to be 1.13; with RAW-Dual [1] (setting [10]), 1.19.
In the case of `O=C1C[C@@H](c2ccc(O)cc2)Oc2cc(O)cc(O)c21` (library stock concentration (final ~1000-fold dilution): 10 mM), the “NF-kB SEAP reporter activity” value in the assay on RAW-Dual [3] (agonist: LPS (TLR4) 0.1 ug/mL) was determined as 0.961; in the assay on RAW-Dual [3] (setting [6]) it was 0.78; in the assay on RAW-Dual [3] (setting [7]), 0.391; with RAW-Dual [3] (setting [8]) it was 0.577.
`Cc1ccc([N+](=O)[O-])cc1S(=O)(=O)N(C)C`: the “NF-kB SEAP reporter activity” value with RAW-Dual [1] (setting [9]) stood at 0.951; in the assay with RAW-Dual [1] (setting [10]) it was 1.14.
As for `Cc1ccc([N+](=O)[O-])cc1S(=O)(=O)N(C)C` (library stock concentration (final ~1000-fold dilution): 10 mM), the “NF-kB SEAP reporter activity” value in the assay on RAW-Dual [3] (agonist: LPS (TLR4) 0.1 ug/mL) amounted to 1.07; with RAW-Dual [3] (setting [6]), 0.867; in the assay with RAW-Dual [3] (setting [7]) it was 0.994; in the assay with RAW-Dual [3] (setting [8]), 1.36.
